Experimental data published in ChEMBL document CHEMBL4888484, “Replenishing the malaria drug discovery pipeline: Screening and hit evaluation of the MMV Hit Generation Library 1 (HGL1) against asexual blood stage Plasmodium falciparum ,using a nano luciferase reporter read-out” (2022).
The campaign covered roughly 150,000 compounds. About 540 (0.36%) showed an effect of 50% or more. The list shows a part of the results.

System: Plasmodium falciparum
Test: Primary screen in NF54 nanoGlo assay, in single point, at 2uM, 72h; a lower Z score goes with more inhibition
Type: functional, Erythrocyte
Settings: timepoint 72 hour

Row | SMILES | % Inhibition | Z score
1 | CS(=O)(=O)NCCC(=O)NC(c1cccs1)[C@H]1C[C@@H](O)C1 (some centres not stated) | -19% | 1.92
2 | Cn1cc(NC(=O)N2CCc3ccc(F)c(F)c3C2)c(C2CC2)n1 | 3% | -0.41
3 | Cc1noc([C@H]2CCCN(C(=O)C(=O)Nc3cnn(-c4ccncc4)c3)C2)n1 | 5% | -0.59
4 | CS(=O)(=O)c1ccc2c(c1)CCCN2C(=O)[C@H]1CC(=O)N(c2ccccc2)C1 | -7% | 1.29
5 | CC[C@@H]1C[C@H]1NC(=O)NCc1nc2c(C)cccc2[nH]1 | -10% | 1.6
6 | CC(C)(CNC(=O)N1CCC[C@H]1C(C)(C)O)c1ccncc1 | -11% | 1.5
7 | CCc1nn(C[C@H](O)c2ccc(C(C)C)cc2)c(=O)c(C#N)c1CC | 6% | -0.86
8 | C[C@H]1CCCN(c2ccc(C(N)=O)cc2NC(=O)c2cnoc2C2CC2)C1 | -7% | 1.5
9 | O=S(=O)(NCc1ccccc1N1CCC(CO)CC1)c1cccs1 | -9% | 1.24
10 | Cc1ccc(-n2nccc2NC(=O)[C@@H]2CCCc3ccccc32)nn1 | -14% | 1.76
11 | COc1ccccc1CNC(=O)c1ccccc1N1C(=O)[C@@H]2Cc3c([nH]c4ccccc34)C(c3cccc(Cl)c3)N2C1=O (some centres not stated) | -16% | 1.39
12 | CC[C@H](C)n1ncc(NC(=O)Nc2ccc(O)c(Cl)c2)c1C | -3% | 0.31
13 | O=C(Cc1cccs1)N1CCC(Nc2cccnc2)CC1 | -10% | 1.77
14 | Cc1ccc(NC(=O)c2c(C)nc3sc(C(=O)NCc4ccccc4)c(N)c3c2-c2cccs2)c(C)c1 | 61% | -9.57
15 | COC(=O)c1cc(NCC(=O)Nc2ccc(C(=O)Nc3ccc(OC)cc3)cc2)cc(C(=O)OC)c1 | 2% | -0.19
16 | CC1CC1c1ccc(CN(C)C(=O)c2ccc(-c3ccccc3F)o2)o1 (configuration not stated) | -4% | 0.46
17 | CC(CC(O)c1ccco1)NC(=O)NCC1CCOC1C(C)(C)C (configuration not stated) | -5% | 0.63
18 | Cc1cc(C(=O)N2CCC[C@H](CCc3ccc(F)c(F)c3)C2)nc(C)n1 | 3% | -0.48
19 | CC(=O)NCC(=O)NCCCCN(OCc1ccccc1)C(=O)OC(C)(C)C | -9% | 1.34
20 | Cc1cc(C(=O)N2CCOCC2)c2cc(C(C)C)ccc2n1 | -7% | 1.36
21 | Cc1nc2c(C(=O)NCc3ccccc3Cl)cnn2c(O)c1Cl | -13% | 1.72

Row | SMILES | % Inhibition | Z score
22 | N=C1C(c2nc3ccccc3s2)=C(O)CN1c1cc(F)c(F)c(F)c1 | -11% | 1.46
23 | CCc1cc(NCc2cc3n(n2)CCCN(CC(C)C)C3)nc(C)n1 | 4% | -0.55
24 | Fc1ccccc1CN1CCCC12CCN(c1ccc3ncccc3c1)CC2 | -15% | 1.87
25 | COCc1nc(C)cc(N(C)Cc2c[nH]nc2C)n1 | -6% | 0.82
26 | Cc1nc(C)c(C(=O)N(C)[C@@H]2CCC[C@H]2O)s1 | 1% | -0.16
27 | COCc1nn(C)cc1C(=O)NCCc1cnc2ccccc2c1 | 0% | 0.02
28 | Cc1nnc(N2CC3(CCOCC3)[C@@H]2C2CC2)nc1C | -5% | 0.8
29 | Cc1cccc2cc3c(nc12)N(S(=O)(=O)c1ccc(C(C)C)cc1)CC3 | -1% | 0.08
30 | Cc1[nH]c(=O)[nH]c(=O)c1Cc1ncnn1Cc1ccc2c(c1)OCO2 | 10% | -1.43
31 | COc1ccc(-c2onc(C)c2C(=O)NCCc2ccc(OC)nc2)cc1 | -5% | 0.51
32 | C[C@@H](CCc1ccccc1F)NCc1ncnn1C | -10% | 1.16
33 | CCc1cc2n(CCN3CCOCC3)c3ccccc3n2n1 | -18% | 2.35
34 | CCN1CCC(N(C)C(=O)C2CC3CCCCC3N2S(=O)(=O)c2ccc(OC)c(OC)c2)CC1 (configuration not stated) | 4% | -0.57
35 | O=C(NC1CCC(O)CC1)N1CCC[C@@H]1Cc1cccc2ccccc12 (some centres not stated) | -37% | 4.35
36 | Cc1cc([C@H](C)NC2CCN(Cc3ccccc3)CC2)no1 | -10% | 1.87
37 | CCOc1cccc(NC(=O)N2Cc3ccccc3NC(=O)[C@@H]2C)c1 | -5% | 0.81
38 | CN(CC(=O)N1CCCC[C@@]12CCCOC2)S(C)(=O)=O | -10% | 1.94
39 | CCc1ccc(C2=CCN(C(=O)N[C@H]3CCC(=O)N(C)C3)CC2)cc1 | -14% | 1.39
40 | CC(C)(C)C1CCC(NC(=O)c2cncn2-c2ccc(-c3ccc(F)c(F)c3)cc2)CC1 (configuration not stated) | -6% | 0.84
41 | O=C(N[C@H]1CCCC[C@@H]1F)c1ccncc1 | 38% | -3.81
